In patent publication US5892029A, “3-hydroxy-2(1H)-pyridinone chelating agents” (priority 1997, dated 1999):
The name of at least one read-out is uncertain.

Experiments:
[1] = Promoting excretion of 238Pu(IV) in mice by injected ligands (Table 3); format: in vivo; conditions: 30 μmol/kg i.p. at 1 h after Pu; for 238Pu in liver at 24 h / 238Pu in skeleton at 24 h / 238Pu in soft tissue at 24 h / 238Pu in whole body at 24 h: mean ± SD; for 238Pu excreta: feces and GI contents / 238Pu excreta: urine 0-24 h / 238Pu in kidneys at 24 h: pooled samples
Source text: (§1) Animal studies were completed using methods detailed in Radiation Protection Dosimetry, 1994, 53, 305: P. W. Durbin et al., "In Vivo Chelation of Am(III), Pu(IV), Np(V) and U(VI) in Mice by TREN-(Me-3,2-HOPO)"; Radiation Protection Dosimetry, 1989, 17, 351: P. W. Durbin et al., "Removal of ^238 Pu(IV) from Mice by Polycatechoylate, -Hydroxamate or -Hydroxypyridinonate Ligands"; Radiation Research, 1984, 99, 85: P. W. Durbin et al., "Specific Sequestering Agents for the Actinides . . . "; Radiation Research, 1984, 99, 106: P. W. Durbin et al., "Removal of Pu and Am from Beagles and Mice . . . "; Radiation Research, 1980, 81, 170: R. D. Lloyd et al., and P. W. Durbin et al., "Specific Sequestering Agents for the Actinides . . . ". The foregoing articles are hereby incorporated by reference.
(§2) Radionuclides used in the animal studies came from a variety of sources. The ^238 Pu(IV) citrate and ^241 Am(III) citrate solutions were prepared for animal injection by 8- to 10-fold dilution with 0.14M NaC1 (pH 4) of concentrated stock solutions (0.08M sodium citrate buffer) that had been held in frozen storage at Lawrence Berkeley Laboratory (hereinafter LBL) for several years. [The ^238 Pu(IV) was originally obtained from D. R. Atherton at the University of Utah Radiobiology Laboratory, Salt Lake City. The ^241 Am(III) solution had been obtained many years earlier from the LBL Actinide Chemistry group.]
The novel chelating agents of the present invention were tested for their effectiveness in promoting excretion of ^238 Pu(IV) in mice by injected ligands as follows. Mice, in groups of five, each received an intravenous injection of 1850 Bq^238 Pu(IV) in 0.2 mL of citrate buffer. One hour later, 30 μmol/kg of ligand was injected intraperitoneally in 0.5 mL of saline. The mice were killed 24 hours after the Pu injection, frozen, and dissected after partial thawing. The ^238 Pu in skeleton, soft tissues, and separated excreta was determined by counting the ^234 U L x-rays. Results of removal of ^238 Pu(IV) from mice by injected ligands are summarized in Table 3, which also includes data for CaNa3 -DTPA and other reference ligands and the Pu-injected controls. […] While in the case of multidentate 1,2-HOPO and catechoylamide chelating agents, octadentates are always better chelating agents than the correspond hexadentates and tetradentates.
^b Ligands were injected (30 μmol kg^-1, i.p.) at 1 h, and mic
were killed at 24 h after iv injection of ^238 Pu(IV) citrate.

[2] = Promoting excretion of 238Pu(IV) in mice by orally administered ligands (Table 4); format: in vivo; conditions: 30 μmol/kg by gavage at 3 min after Pu; for 238Pu in liver at 24 h / 238Pu in skeleton at 24 h / 238Pu in soft tissue at 24 h / 238Pu in whole body at 24 h: mean ± SD; for 238Pu excreta: feces and GI contents / 238Pu excreta: urine 0-24 h / 238Pu in kidneys at 24 h: pooled samples
Source text: as §1, §2
The novel chelating agents of the present invention were tested for their effectiveness in promoting excretion of ^238 Pu(IV) by oral administration to mice as follows. Mice in groups of five, each received an intravenous injection of 1850 Bq ^238 Pu(IV) in 0.2 M]L of citrate buffer. Three minutes later, 30 μmol/kg of ligand was given by gavage in 0.5 ml of saline. The mice were killed 24 hours after the ^238 Pu(IV) injection, frozen, and dissected after partial thawing. The ^238 Pu(IV) in skeleton, soft tissues, and separated excreta was determined by counting the ^234 U L x-rays. Results of removal of ^238 Pu(IV) from mice by orally administered ligands are summarized in Table 4, which also includes data for the reference ligands, and the Pu-injected controls.
^b Ligands were given (30 μmole kg^-1, by gavage) at 3 min, an
mice were killed at 24 h after iv injection of ^238 Pu(IV) citrate.

Structure (SMILES): Cn1ccc(C(=O)NCc2cc(CNC(=O)c3ccn(C)c(=O)c3O)cc(CNC(=O)c3ccn(C)c(=O)c3O)c2)c(O)c1=O [ME-Me-3,2-HOPO, N,N,N,-tris[(3-hydroxy-1-methyl-2-oxo-1,2-dihydropyridin-4-yl)carboxamidoethyl]-aniline]
- 238Pu in liver at 24 h [1]: 6.1 ± 4.9% of injected ^238 Pu
- 238Pu in skeleton at 24 h [1]: 12 ± 1.8% of injected ^238 Pu
- 238Pu in soft tissue at 24 h [1]: 3.0 ± 2.0% of injected ^238 Pu
- 238Pu in whole body at 24 h [1]: 22 ± 8.5% of injected ^238 Pu
- 238Pu excreta: feces and GI contents [1]: 70.1% of injected ^238 Pu
- 238Pu excreta: urine 0-24 h [1]: 33.5% of injected ^238 Pu
- 238Pu in kidneys at 24 h [1]: 0.9% of injected ^238 Pu
- 238Pu in liver at 24 h [2]: 40 ± 1.8% of administered ^238 Pu
- 238Pu in skeleton at 24 h [2]: 34 ± 24.5% of administered ^238 Pu
- 238Pu in soft tissue at 24 h [2]: 7.5 ± 1.7% of administered ^238 Pu
- 238Pu in whole body at 24 h [2]: 82 ± 3.9% of administered ^238 Pu
- 238Pu excreta: feces and GI contents [2]: 6.7% of administered ^238 Pu
- 238Pu excreta: urine 0-24 h [2]: 12.4% of administered ^238 Pu
- 238Pu in kidneys at 24 h [2]: 1.2% of administered ^238 Pu

Structure (SMILES): Cn1ccc(C(=O)NCCN(CCNC(=O)c2ccn(C)c(=O)c2O)CCNC(=O)c2ccn(C)c(=O)c2O)c(O)c1=O [TREN-Me-3,2-HOPO]
- 238Pu in liver at 24 h [1]: 5.0 ± 2.2% of injected ^238 Pu
- 238Pu in skeleton at 24 h [1]: 10 ± 1.1% of injected ^238 Pu
- 238Pu in soft tissue at 24 h [1]: 2.5 ± 0.8% of injected ^238 Pu
- 238Pu in whole body at 24 h [1]: 18 ± 2.7% of injected ^238 Pu
- 238Pu excreta: feces and GI contents [1]: 43.3% of injected ^238 Pu
- 238Pu excreta: urine 0-24 h [1]: 37% of injected ^238 Pu
- 238Pu in kidneys at 24 h [1]: 0.6% of injected ^238 Pu
- 238Pu in liver at 24 h [2]: 8.5 ± 4.7% of administered ^238 Pu
- 238Pu in skeleton at 24 h [2]: 13 ± 5.5% of administered ^238 Pu
- 238Pu in whole body at 24 h [2]: 25 ± 12% of administered ^238 Pu
- 238Pu excreta: feces and GI contents [2]: 34.1% of administered ^238 Pu
- 238Pu excreta: urine 0-24 h [2]: 42% of administered ^238 Pu
- 238Pu in kidneys at 24 h [2]: 0.7% of administered ^238 Pu

Structure (SMILES): Cn1ccc(C(=O)NCCN(CCNC(=O)c2ccn(C)c(=O)c2O)CCN(CC(=O)O)CC(=O)O)c(O)c1=O [TREN-bis(Me-3,2-HOPO)-bis acetic acid, Ethylenediamine-N,N-bis[(3-hydroxy-1-methyl-2-oxo-1,2-dihydropyridin-4-ylcarboxamidoethyl]-N',N'-diacetic acid)]
- 238Pu in liver at 24 h [1]: 6.6 ± 2.2% of injected ^238 Pu
- 238Pu in skeleton at 24 h [1]: 20 ± 1.7% of injected ^238 Pu
- 238Pu in whole body at 24 h [1]: 30 ± 3.6% of injected ^238 Pu
- 238Pu excreta: feces and GI contents [1]: 34.6% of injected ^238 Pu
- 238Pu excreta: urine 0-24 h [1]: 8.7% of injected ^238 Pu
- 238Pu in kidneys at 24 h [1]: 0.5% of injected ^238 Pu
- 238Pu in liver at 24 h [2]: 38 ± 2.7% of administered ^238 Pu
- 238Pu in skeleton at 24 h [2]: 28 ± 5.2% of administered ^238 Pu
- 238Pu in soft tissue at 24 h [2]: 4.1 ± 0.7% of administered ^238 Pu
- 238Pu in whole body at 24 h [2]: 71 ± 5.6% of administered ^238 Pu
- 238Pu excreta: feces and GI contents [2]: 10.0% of administered ^238 Pu
- 238Pu excreta: urine 0-24 h [2]: 19.1% of administered ^238 Pu
- 238Pu in kidneys at 24 h [2]: 0.6% of administered ^238 Pu

Structure (SMILES): Cn1ccc(C(=O)NCCCN(CCCNC(=O)c2ccn(C)c(=O)c2O)CCCNC(=O)c2ccn(C)c(=O)c2O)c(O)c1=O [TRPN-Me-3,2-HOPO, N,N,N,-tris[(3-benzyloxy-1-methyl-2-oxo-1,2-dihydro-pyridin-4-yl)carboxamidopropyl]amine]
- 238Pu in liver at 24 h [1]: 17 ± 5.0% of injected ^238 Pu
- 238Pu in skeleton at 24 h [1]: 14 ± 3.2% of injected ^238 Pu
- 238Pu in soft tissue at 24 h [1]: 2.0 ± 1.1% of injected ^238 Pu
- 238Pu excreta: feces and GI contents [1]: 11.5% of injected ^238 Pu
- 238Pu excreta: urine 0-24 h [1]: 55% of injected ^238 Pu
- 238Pu in kidneys at 24 h [1]: 0.7% of injected ^238 Pu
- 238Pu in liver at 24 h [2]: 28 ± 3.1% of administered ^238 Pu
- 238Pu in skeleton at 24 h [2]: 28 ± 8.0% of administered ^238 Pu
- 238Pu in soft tissue at 24 h [2]: 4.3 ± 1.7% of administered ^238 Pu
- 238Pu in whole body at 24 h [2]: 60 ± 11% of administered ^238 Pu
- 238Pu excreta: feces and GI contents [2]: 7.9% of administered ^238 Pu
- 238Pu excreta: urine 0-24 h [2]: 27% of administered ^238 Pu
- 238Pu in kidneys at 24 h [2]: 0.7% of administered ^238 Pu
